According to PubChem BioAssay AID493208 (National Center for Advancing Translational Sciences (NCATS), 2011):
Screen size: about 44,000 compounds; about 340 (0.77%) were called active. Not shown: some 5% with an inconclusive outcome. The call rests on the fitted dose curve; in most records, active means well fitted inhibition curve with a large enough effect; inconclusive means small, poorly fitted or top-dose-only effect; inactive means flat fitted curve, though single readings scatter. This is one part of the list.

assay: Acumen qHTS Assay for Inhibitors of the mTORC1 Signaling Pathway in MEF (Tsc2-/-, p53-/-) Cells: Sytravon; conditions: phospho-rpS6 immunofluorescence/PI, 24 h; series mostly up to 38.3 µM; activity change, negative = inhibition: at the top concentration;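 further: plate controls were DMSO for no effect and rapamycin for full effect; nearly all actives have a fitted effect of over 50% in size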
In short: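 Readout is phospho-S6 Alexa 488 signal normalized to PI per well, reported as % active cells with thresholds set from rapamycin (7.5 nM) and DMSO controls. Cells: Tsc2-/-, p53-/- MEFs, 24 hrs compound at 37 C; PI cell number serves as viability.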

Question: Which “activity change, negative = inhibition” value does the source give for `CSc1ccc(-c2nc3cccc(C)n3c2Nc2ccc3c(c2)OCO3)cc1` here?
Answer: inactive: 10.7%

Question: With `O=C(CN1C(=O)CSc2ccc(S(=O)(=O)N3CCCC3)cc21)NCc1ccccc1Cl` as the molecule, how does the “activity change, negative = inhibition” value read?
Answer: inactive: 0.556%

Question: Which “activity change, negative = inhibition” value does the source give for `CC(=O)N1CCCc2cc(S(=O)(=O)N3CCCC(C(=O)NC(C)C)C3)ccc21` (stereo not given) here?
Answer: inactive: -1.07%

Question: With `Cc1ccc(OCC(=O)Nc2c(C(=O)c3ccc(Cl)cc3)oc3ccccc23)cc1C` as the molecule, how does the “activity change, negative = inhibition” value read?
Answer: inactive: 9.25%

Question: Which “activity change, negative = inhibition” value does the source give for `CCOc1ccc(C2c3c(oc4ccc(C)cc4c3=O)C(=O)N2CCCN(C)C)cc1OC` (stereo not given) here?
Answer: inactive: -11.1%

Question: Which “activity change, negative = inhibition” value does the source give for `Cc1cc(-c2ccc(S(=O)(=O)Nc3ccc(Cl)cc3)cc2)on1` here?
Answer: inactive: -7.38%

Question: Which “activity change, negative = inhibition” value does the source give for `CC(C)Oc1ccc(CNC(=O)c2sc3ncccc3c2-n2cccc2)cc1` here?
Answer: inactive: -8.44%

Question: For `COc1ccc(-n2nc(C(=O)Nc3ccc(C(C)=O)cc3)nc2-c2ccccc2)cc1`, which “activity change, negative = inhibition” value is on record?
Answer: inactive: -0.0178%

Question: For `COc1ccc(-c2nnc(SCCOc3ccccc3C)o2)cc1OC`, which “activity change, negative = inhibition” value is on record?
Answer: inactive: 4.93%

Question: Which “activity change, negative = inhibition” value does the source give for `Cc1cn(C)c(CC(=O)Nc2ccc(F)cc2Cl)c1C(=O)O` here?
Answer: inactive: -0.837%

Question: With `O=S(=O)(c1ccc(Cl)cc1)c1nc(-c2cccs2)oc1SCc1ccccc1F` as the molecule, how does the “activity change, negative = inhibition” value read?
Answer: inactive: -9.96%

Question: Which “activity change, negative = inhibition” value does the source give for `Cc1cc(C)cc(OCCSc2nc3ccc(NC(=O)COc4ccccc4)cc3s2)c1` here?
Answer: inactive: 0.52%

Question: For `Cc1ccc(OCC(=O)Nc2nonc2-c2ccc(Br)cc2)cc1C`, which “activity change, negative = inhibition” value is on record?
Answer: inactive: -0.155%

Question: With `CCOC(=O)C(CC)N1CCN(Cc2ccc(F)cc2)C(=O)C1=O` (stereo not given) as the molecule, how does the “activity change, negative = inhibition” value read?
Answer: inactive: 0%

Question: For `COc1ccc(-c2ccc(NS(=O)(=O)c3cc(C)c(C)cc3C)cc2)nn1`, which “activity change, negative = inhibition” value is on record?
Answer: inactive: 2.87%

Question: Which “activity change, negative = inhibition” value does the source give for `O=C(Nc1nc2c(F)cccc2s1)c1ccc(S(=O)(=O)N2CCCc3ccccc32)cc1` here?
Answer: inactive: 4.01%

Question: For `CCn1nc(C)c2c(-c3ccccc3)cc(=O)n(C(C)C(=O)Nc3cc(C)ccc3C)c21` (stereo not given), which “activity change, negative = inhibition” value is on record?
Answer: inactive: -11.9%

Question: With `CCc1ccc(NC(=O)Cn2nc(SC)c(S(=O)(=O)c3ccc(OC)cc3)c2N)cc1` as the molecule, how does the “activity change, negative = inhibition” value read?
Answer: inactive: -22.2%

Question: Which “activity change, negative = inhibition” value does the source give for `CCOC(=O)c1c(NC(=O)C2c3ccccc3Oc3ccccc32)sc2c1CCC(CC)C2` (stereo not given) here?
Answer: inactive: 1.22%

Question: With `Clc1ccc(CCNC(c2ccc(Cl)cc2)c2nnc(-c3ccccc3)o2)cc1` (stereo not given) as the molecule, how does the “activity change, negative = inhibition” value read?
Answer: inactive: -0.495%

Question: For `CCc1ccc(NC(=O)Cn2c(=O)n(CCCC(=O)NCc3ccc4c(c3)OCO4)c(=O)c3ccccc32)cc1`, which “activity change, negative = inhibition” value is on record?
Answer: inactive: -23.1%

Question: With `CCS(=O)(=O)NCC(c1ccco1)N1CCN(c2ccc(F)cc2)CC1` (stereo not given) as the molecule, how does the “activity change, negative = inhibition” value read?
Answer: inactive: 0.931%

Question: For `CC(=O)C1=C(c2cccc([N+](=O)[O-])c2)N(C(C)=O)n2c(nnc2-c2ccc(C)cc2)S1`, which “activity change, negative = inhibition” value is on record?
Answer: inactive: 0.322%

Question: For `CCOC(=O)c1c(S(=O)(=O)N2CCCC(C(=O)N3CCN(c4cc(C)ccc4C)CC3)C2)c(C)n(C)c1C` (stereo not given), which “activity change, negative = inhibition” value is on record?
Answer: inactive: 7.19%

Question: For `Cc1nn2c(C)c(C(=O)N3CCN(c4ccc(Cl)cc4)CC3)cnc2c1-c1ccc(F)cc1`, which “activity change, negative = inhibition” value is on record?
Answer: inactive: -2.35%

Question: For `COc1cc2c(cc1OC)n(CC(=O)c1ccc(C)cc1C)c(=O)n1nc(CCn3nc(C)cc3C)nc21`, which “activity change, negative = inhibition” value is on record?
Answer: inactive: -2.48%

Question: For `O=S(=O)(c1ccc(-c2cnc(C3CC3)o2)cc1)N1CCN(c2ccccc2F)CC1`, which “activity change, negative = inhibition” value is on record?
Answer: inactive: 13.3%

Question: Which “activity change, negative = inhibition” value does the source give for `O=C(NCCCN1CCN(c2cccc(Cl)c2)CC1)c1ccc2nc(Cc3ccccc3)oc2c1` here?
Answer: inactive: -0.684%

Question: For `Cc1cccc(Nc2sc(C(=O)c3ccc(Cl)cc3)c(N)c2C(N)=O)c1`, which “activity change, negative = inhibition” value is on record?
Answer: inactive: 1.88%

Question: For `COc1ccc(NC(=O)c2cc(-c3ccccc3F)no2)cc1`, which “activity change, negative = inhibition” value is on record?
Answer: inactive: 10.4%

Question: For `COc1cccc(CNC(=O)Cn2nc(C)c3sc4ccccc4c3c2=O)c1OC`, which “activity change, negative = inhibition” value is on record?
Answer: inactive: -0.334%

Question: Which “activity change, negative = inhibition” value does the source give for `C=Cc1ccc(Cn2c(C)c(CNCCc3ccc(OCC)cc3)c(C(=O)O)c2C)cc1` here?
Answer: inactive: -0.747%

Question: Which “activity change, negative = inhibition” value does the source give for `Cc1cccc(C)c1OCC(=O)N(Cc1ccco1)Cc1ccco1` here?
Answer: inactive: -2.7%

Question: For `Cc1ccnc(NS(=O)(=O)c2ccc(NC(=O)c3ccc(C)c(C)c3)cc2)n1`, which “activity change, negative = inhibition” value is on record?
Answer: inactive: 8.08%

Question: Which “activity change, negative = inhibition” value does the source give for `Cc1ccc2c(=O)cc(CSc3ncn[nH]3)[nH]c2c1C` here?
Answer: inactive: 6.56%

Question: For `CCOC(=O)c1c(C)[nH]c(C)c1S(=O)(=O)N1CCC(C(=O)N2CCN(c3ccc(F)cc3)CC2)CC1`, which “activity change, negative = inhibition” value is on record?
Answer: inactive: 1.32%

Question: Which “activity change, negative = inhibition” value does the source give for `CCn1cc(C(=O)N2CCN(c3cccc(Cl)c3)CC2)c(=O)c2cc(S(=O)(=O)N3CCC(C)CC3)ccc21` here?
Answer: inactive: 0.6%

Question: For `Cc1ccccc1CN1C(=O)c2ccccc2Sc2ccc(C(=O)NCCc3ccccc3)cc21`, which “activity change, negative = inhibition” value is on record?
Answer: inactive: -4.31%

Question: Which “activity change, negative = inhibition” value does the source give for `Cc1ccc2nc(NC(=O)c3ccc(S(=O)(=O)N4CCC(C)CC4)cc3)sc2c1` here?
Answer: inactive: -9.63%

Question: With `Cc1ccc(N2CC(NC(=O)c3cccs3)CC2=O)cc1` (stereo not given) as the molecule, how does the “activity change, negative = inhibition” value read?
Answer: inactive: 0.481%

Question: With `CCc1cccc(CC)c1NC(=O)c1c(C)oc2ccc(O)c(CN3CCCC3)c12` as the molecule, how does the “activity change, negative = inhibition” value read?
Answer: inactive: -13.4%

Question: For `O=C(CCCN1C(=O)c2cccnc2Oc2ccc(Cl)cc21)NCc1ccc(F)cc1`, which “activity change, negative = inhibition” value is on record?
Answer: inactive: -6.17%

Question: For `CN1CCN(CCNC(=O)c2cnn(-c3ccc(F)cc3)c2C2CCN(C(=O)OC(C)(C)C)CC2)CC1`, which “activity change, negative = inhibition” value is on record?
Answer: inactive: 0.561%

Question: With `Cc1ccc(N2C(=O)CSC23C(=O)N(CC(=O)NCc2ccccc2)c2ccccc23)cc1` (stereo not given) as the molecule, how does the “activity change, negative = inhibition” value read?
Answer: inactive: 0.16%

Question: For `Cc1ccc2c(c1)C(=O)OC(C(=O)Nc1ccccc1C(=O)O)C2` (stereo not given), which “activity change, negative = inhibition” value is on record?
Answer: inactive: -1.97%

Question: For `CCOc1ccc(-n2cc(-c3ccccc3)c3c(NC4CCCC4)ncnc32)cc1`, which “activity change, negative = inhibition” value is on record?
Answer: inactive: 0%

Question: For `O=C(CN1C(=O)C2(SCC(=O)N2c2ccc(F)cc2)c2ccccc21)NC1CCCCC1` (stereo not given), which “activity change, negative = inhibition” value is on record?
Answer: inactive: 3.52%

Question: For `Cc1ccccc1Nc1nc(N)c(C(=O)c2ccccc2Cl)s1`, which “activity change, negative = inhibition” value is on record?
Answer: inactive: -5.05%

Question: Which “activity change, negative = inhibition” value does the source give for `Cc1cc2oc(C(=O)N(Cc3ccc(N(C)C)cc3)Cc3ccco3)c(C)c2cc1Cl` here?
Answer: inactive: 0.752%

Question: With `CCCCc1ccc(NC(=O)CSc2nc(=O)[nH]c3c2CCCC3)cc1` as the molecule, how does the “activity change, negative = inhibition” value read?
Answer: inactive: 2.61%

Question: Which “activity change, negative = inhibition” value does the source give for `O=C1C(=O)N(C2CCN(C(=O)c3cccc(Cl)c3)CC2)CCN1Cc1ccc(F)cc1` here?
Answer: inactive: 5.67%

Question: For `CCOc1ccc(S(=O)(=O)N2CCN(Cc3nc4ccc(C)cc4o3)CC2)cc1`, which “activity change, negative = inhibition” value is on record?
Answer: inactive: 0.632%

Question: Which “activity change, negative = inhibition” value does the source give for `O=C(CSc1nc2c([nH]c3ccccc32)c(=O)n1-c1ccccc1F)Nc1cccc(C(F)(F)F)c1` here?
Answer: inactive: -11.6%

Question: For `CCOc1ccc(NC(=O)c2cnc3sc(N4CCOCC4)nn3c2=O)cc1`, which “activity change, negative = inhibition” value is on record?
Answer: inactive: -5.7%

Question: For `COc1cccc(N2CC(NC(=O)COc3ccccc3F)CC2=O)c1` (stereo not given), which “activity change, negative = inhibition” value is on record?
Answer: inactive: -10.8%

Question: For `Cc1ccc(C)c(NC(=O)CSc2ccc3nc(-c4ccccc4)cn3n2)c1`, which “activity change, negative = inhibition” value is on record?
Answer: inactive: -6.27%

Question: Which “activity change, negative = inhibition” value does the source give for `CCOc1ccc(CCNC(=O)Cn2c(-c3cccs3)cc3ccccc32)cc1OCC` here?
Answer: inactive: -1.21%

Question: With `O=C(Nc1cccc(C(=O)OCc2cc(=O)n3nc(C4CC4)sc3n2)c1)c1cccc(Cl)c1` as the molecule, how does the “activity change, negative = inhibition” value read?
Answer: inactive: 0%

Question: For `COc1ccc(Nc2oc(/C=C/c3ccccc3OC)nc2C#N)cc1`, which “activity change, negative = inhibition” value is on record?
Answer: inactive: -13.6%

Question: With `COC(=O)CCN(c1ccccc1)C(CNS(=O)(=O)c1ccccc1)c1ccccc1` (stereo not given) as the molecule, how does the “activity change, negative = inhibition” value read?
Answer: inactive: -22.1%
